Experimental data from PubChem BioAssay AID463173 (ICCB-Longwood Screening Facility, Harvard Medical School, 2010).
About 1,700 (3.3%) of roughly 52,000 compounds were called active. Cut-off read from the data, not from the text of the source: active = survival mostly below about 52% (no sharp cut-off); inactive = mostly above about 56%. The list shows a part of the results.

The compounds below were run on Wild type (assay: growth inhibition of S. aureus wild type versus tarO mutant, primary screen, teichoic acid synthesis inhibitors, RN4220, OD600 (AID 463173)). Settings: S. aureus RN4220 wild type/DeltatarO growth, OD600, 18 h, active compounds read low, screened at 18.75 µg/mL (by protocol).
In the case of `COc1ccccc1-c1cc(C(=O)N2CCN(c3ccccc3)CC2)no1`, the survival is reported as active: -10%.
In the case of `Cc1cc(C)c2c(=O)cc(C(=O)Nc3ccc(C)c(Cl)c3)oc2c1`, the survival is reported as inactive: 103%.
For `CCOC(=O)Cn1c(C2CC(=O)N(c3ccc(C)cc3)C2)nc2ccccc21` (stereo not drawn), the survival was inactive: 87%.
`COCCn1c(-c2ccccc2)c(C)n2c3c(=O)n(C)c(=O)n(C)c3nc12` was tested, and the survival was inactive: 95%.
In the case of `Cc1ccccc1OCCn1cc(C(=O)C2CCCCC2)c2ccccc21`, the survival is reported as inactive: 124%.
In the case of `CCC(=O)N1c2ccccc2CC1C(=O)NCCc1ccc(SC)cc1` (stereo not drawn), the survival is reported as inactive: 97%.
For `CSc1ccc(/C=C(\C#N)C(=O)NC2CCCCC2)cc1`, the survival was inactive: 95%.
For `O=[N+]([O-])c1ccc(C(c2sc3nc(-c4ccco4)nn3c2O)N2CCN(Cc3ccccc3)CC2)cc1` (stereo not drawn), the survival was inactive: 71%.
With `O=C(Nc1ccc2c(c1)OCO2)c1cc(-c2cccc(Cl)c2)on1` the survival was inactive: 85%.
With `Cc1ccc(C)c(N2CCN(C(=O)Cn3cnc4sc(C)c(S(=O)(=O)N5CCN(c6ncccn6)CC5)c4c3=O)CC2)c1` the survival was inactive: 82%.
`CCOC(=O)c1noc2ncnc(N(CCC(=O)OC)c3ccccc3)c12` was tested, and the survival was inactive: 127%.
`CCOC(=O)c1noc2ncnc(Nc3ccc(C)c(F)c3)c12` was tested, and the survival was inactive: 90%.
For `CN1CCN(CCCNC(=O)Cn2c(-c3cccs3)cc3ccccc32)CC1`, the survival was inactive: 71%.
For `Cc1ccc2c(c1)sc1nc(=O)n(-c3ccc(Cl)cc3)c(=O)n12`, the survival was inactive: 77%.
In the case of `COc1ccc(OC)c(C2CC(=O)c3c([nH]c(C(=O)OC4CCC(C)CC4)c3C)C2)c1` (stereo not drawn), the survival is reported as inactive: 84%.
With `COc1cc(NC(=O)c2cc(-c3ccc4c(c3)OCO4)on2)cc(OC)c1OC` the survival was inactive: 146%.
`COc1ccc(-c2cc(C)no2)cc1S(=O)(=O)NCc1ccc(OC(C)C)cc1` was tested, and the survival was inactive: 72%.
`O=C(Cn1cc(SCc2ccc(C(F)(F)F)cc2)c2ccccc21)N1CCCCC1` was tested, and the survival was inactive: 80%.
With `CC(CC(=O)NCc1ccc(Cl)cc1)CC1=NS(=O)(=O)c2ccccc2N1` (stereo not drawn) the survival was inactive: 82%.
For `COc1ccc(N2CCN(CCCNC(=O)C3COc4ccc(OC)cc4C3)CC2)cc1` (stereo not drawn), the survival was inactive: 78%.
`COc1ccc2c(CNCc3ccc(Cl)cc3)c(C(=O)O)n(Cc3ccccc3C)c2c1` was tested, and the survival was inactive: 90%.
For `CCc1cccc2c(-c3ccccc3)nc(SCC(=O)Nc3ccccc3)nc12`, the survival was inactive: 88%.
`Cc1cccc(Nc2nnc(-n3nc(C)cc3C)c3ccccc23)c1` was tested, and the survival was inactive: 129%.
In the case of `Cc1c(-c2nsc(NC(=O)c3ccc(Cl)cc3)n2)nnn1-c1ccc(C(C)C)cc1`, the survival is reported as inactive: 87%.
For `COc1ccc(NC(=O)c2cnn(-c3ccc(C)cc3)c2-n2cccc2)cc1Cl`, the survival was inactive: 73%.
With `COc1ccc(S(=O)(=O)c2cn(C)c3cc(N4CCCCC4)c(F)cc3c2=O)cc1` the survival was inactive: 71%.
For `CC(=O)c1ccc(N2CCN(c3nc4c(S(=O)(=O)c5ccccc5)nnn4c4ccc(Cl)cc34)CC2)cc1`, the survival was inactive: 89%.
For `Cc1cc(Br)ccc1NC(=O)c1cc2c(=O)n(C)c3cc(Cl)ccc3c2s1`, the survival was inactive: 69%.
`O=C(NC1CC(=O)N(c2ccccc2)C1)C1CCCCC1` (stereo not drawn) was tested, and the survival was inactive: 134%.
With `COc1ccc2[nH]cc(NC(=O)NCCO)c(=O)c2c1` the survival was inactive: 112%.
With `Cc1cc(C)cc(NC(=O)CSc2nccn2-c2ccccc2)c1` the survival was inactive: 135%.
With `Cc1cccc2nc(-c3cccnc3)c(Nc3ccc(C(C)C)cc3)n12` the survival was inactive: 79%.
`COc1ccc(NC(=O)C2=C(C)Nc3nc(SCc4ccccc4C)nn3C2c2ccc(Br)cc2)cc1` (stereo not drawn) was tested, and the survival was inactive: 61%.
With `N#Cc1c(NC(=O)c2ccccc2)oc(-c2ccccc2)c1-c1ccccc1` the survival was inactive: 108%.
With `COc1cc(N(C(=O)Cn2nnc3ccccc32)C(C(=O)NCC2CCCO2)c2ccc(F)cc2)ccc1-n1cnnn1` (stereo not drawn) the survival was inactive: 103%.
For `Cc1cccc(NC(=O)C2CCN(S(=O)(=O)c3cccc4nsnc34)CC2)c1C`, the survival was inactive: 87%.
For `CCCCOc1c(Cl)cc(C(=O)N(Cc2ccc(C)o2)C2CCS(=O)(=O)C2)cc1Cl` (stereo not drawn), the survival was inactive: 91%.
With `CCC1=NN(C(=O)c2ccccc2O)C(O)(c2ccccc2)C1` (stereo not drawn) the survival was inactive: 47%.
`COc1ccc(S(=O)(=O)N2CCC(c3ccncc3)CC2)cc1Cl` was tested, and the survival was inactive: 136%.
`CN(C(=O)c1cc(-c2ccccc2O)on1)c1ccccc1` was tested, and the survival was inactive: 64%.
With `CSc1ccc(CCNc2ncnc3onc(C)c23)cc1` the survival was inactive: 120%.
For `Cc1cc(C)c2oc(C(=O)N(Cc3ccc(F)cc3)C3CCS(=O)(=O)C3)cc(=O)c2c1` (stereo not drawn), the survival was inactive: 112%.
In the case of `CC(=O)N(CCCCN1C(=O)c2ccccc2C1=O)c1ccc(Cl)cc1`, the survival is reported as inactive: 114%.
For `CCOc1ccc(/C=C(\C#N)c2nc(-c3cc4ccccc4oc3=O)cs2)c(OCC)c1`, the survival was inactive: 85%.
For `CCN1CCN(C(c2ccc(OC)cc2)c2c(O)cc(C)n(CCOC)c2=O)CC1` (stereo not drawn), the survival was inactive: 82%.
`CCOC(=O)c1c(C)oc2ccc(N(C(=O)Oc3ccccc3)S(=O)(=O)c3ccccc3)cc12` was tested, and the survival was inactive: 98%.
In the case of `COc1ccccc1NC(=O)c1c(NCc2sccc2C)sc2c1CCCCC2`, the survival is reported as inactive: 58%.
With `CN(C(=O)Cn1c(=O)n(CCCS(=O)(=O)C2CCCCC2)c(=O)c2ccccc21)c1ccccc1` the survival was inactive: 69%.
`CCOc1ccccc1-c1cc(C(=O)N/N=C(\C)c2ccco2)[nH]n1` was tested, and the survival was inactive: 121%.
`COc1ccc(C(CNC(=O)COc2ccc(C)cc2)N2CCCCC2)cc1` (stereo not drawn) was tested, and the survival was inactive: 105%.
`O=C(Cn1c(=O)oc2ccccc21)NCc1cccc(Cl)c1` was tested, and the survival was inactive: 78%.
`COc1ccc2c(CNCc3ccc(C)o3)c(C(=O)O)n(Cc3ccccc3)c2c1` was tested, and the survival was inactive: 85%.
With `COc1ccc(Cl)cc1NC(=O)Cn1c2ncccc2c(=O)n1-c1ccc(C)c(C)c1` the survival was inactive: 94%.
`Cc1cc(C)cc(N(CC(=O)Nc2cccc(C)c2C)S(=O)(=O)c2c(C)[nH]c(=O)[nH]c2=O)c1` was tested, and the survival was inactive: 82%.
`Cc1cccc(CCNC(=O)c2cc3ccccn3n2)c1` was tested, and the survival was inactive: 68%.
In the case of `COc1ccc(C2C=C(c3ccccc3)Nc3nc(NC(=O)c4ccc(C)cc4)nn32)cc1` (stereo not drawn), the survival is reported as inactive: 61%.
With `CCOc1cc(-c2nc(-c3ccc(-c4ccc(C)cc4)nc3OC)no2)cc(OCC)c1OCC` the survival was inactive: 56%.
For `CCOC(=O)c1ccc(NC(=O)c2cc3cc(C)ccc3n2C)cc1`, the survival was inactive: 89%.
In the case of `Cc1ccc(-n2nc3c(=O)n(CC(=O)Nc4ccccc4F)nc(C)c3c2C)c(C)c1`, the survival is reported as inactive: 86%.
For `COC(=O)c1ccc(Cl)cc1NC(=O)N1CC(C)Oc2ccccc21` (stereo not drawn), the survival was inactive: 103%.
In the case of `Cc1ccc2cc(CN(CCO)C(=O)NCc3ccccc3)c(=O)[nH]c2c1`, the survival is reported as inactive: 110%.
In the case of `Cc1cc(NS(=O)(=O)c2ccc(NC(=O)COc3ccc(Cl)cc3)cc2)nc(C)n1`, the survival is reported as inactive: 73%.
With `Cc1ccc(NC(=O)Nc2nnc(N(C)Cc3ccccc3)s2)cc1` the survival was inactive: 101%.
For `Cc1cccc(N2CCN(S(=O)(=O)c3ccc4c(c3)CCCN4C(=O)C3CCC3)CC2)c1C`, the survival was inactive: 86%.
`COc1ccccc1N1CCN(C(=O)Cn2ncc3c(=O)oc4ccccc4c32)CC1` was tested, and the survival was inactive: 72%.
In the case of `CCN(CC)c1ccc(NC(=O)C(Cc2ccccc2)NS(=O)(=O)c2ccc(Br)s2)c(C)c1` (stereo not drawn), the survival is reported as inactive: 127%.
In the case of `CC(=O)Nc1cccc(NC(=O)Cn2cnc3c2c(=O)n(C)c(=O)n3C)c1`, the survival is reported as inactive: 75%.
`O=C(Nc1cccc(Cl)c1)c1c(NC(=O)C(F)(F)F)sc2c1CCCC2` was tested, and the survival was active: -2%.
`O=C(Nc1ccc(C(=O)OCc2cc(=O)n3nc(C4CC4)sc3n2)cc1)c1ccc(F)cc1` was tested, and the survival was inactive: 69%.
In the case of `Cc1nc(N2CCCC2)c2c(C(=O)Nc3cccc(C)c3C)c(C)oc2n1`, the survival is reported as inactive: 90%.
With `COc1ccc(CCNCc2c(C(=O)O)c(C)n(Cc3ccccc3C)c2C)c(OC)c1` the survival was inactive: 91%.
For `COc1cc(OC)c(NC(=O)COCc2cc(-c3cccs3)on2)cc1Cl`, the survival was inactive: 73%.
`Cc1ccc(Cn2nnc3c(=O)[nH]c(C4CCN(S(=O)(=O)/C=C/c5ccccc5)CC4)nc32)cc1` was tested, and the survival was inactive: 85%.
With `CCOc1ccccc1N(C)C(=O)Cn1cnc2sc(C)c(S(=O)(=O)N3CCC(C)CC3)c2c1=O` the survival was inactive: 88%.
In the case of `CN(C)CCN(Cc1ccco1)S(=O)(=O)c1cc2c(cc1Cl)NC(=O)CO2`, the survival is reported as inactive: 65%.
`COc1ccccc1CCNC(=O)CCc1c(C)c2cc3c(C)coc3c(C)c2oc1=O` was tested, and the survival was inactive: 89%.
`N#Cc1cn(CCOc2ccccc2F)c2ccccc12` was tested, and the survival was inactive: 108%.
For `Cc1nn(CCCC(=O)Nc2ccccc2C(F)(F)F)c(=O)c2c1sc1ccccc12`, the survival was inactive: 86%.
With `O=C(Cn1c(=O)n(Cc2ccco2)c(=O)c2oc3ccccc3c21)Nc1ccc(F)cc1F` the survival was inactive: 78%.
For `Cc1cn2c(=O)cc(COc3ccc(NC(=O)c4cccc(F)c4)cc3)nc2s1`, the survival was inactive: 122%.
For `CCC(Sc1nnc(C)n2c1cc1occc12)C(=O)Nc1ccccc1F` (stereo not drawn), the survival was inactive: 106%.
In the case of `COc1cccc(NC(=O)Nc2cc(-c3cn4cccnc4n3)ccc2C)c1`, the survival is reported as inactive: 82%.
`CN(C)S(=O)(=O)Nc1ccc(Cc2ccncc2)cc1` was tested, and the survival was inactive: 100%.
`Cn1c(=O)n(C)c2cc(NS(=O)(=O)c3ccccc3)c(NCc3ccccc3)cc21` was tested, and the survival was inactive: 74%.
For `O=C(NCCO)C(=O)Nc1c2c(nn1-c1ccc(F)cc1)CSC2`, the survival was inactive: 99%.
For `Cc1ccc(-c2noc(CNC(=O)c3ccc(C(C)(C)C)cc3)n2)cc1`, the survival was inactive: 89%.
In the case of `COC(=O)c1cc2oc3ccccc3c2n1CC(=O)Nc1ccc(OC)c(OC)c1OC`, the survival is reported as inactive: 82%.
In the case of `COc1ccccc1CNC(=O)CN1C(=O)CSc2ccc(S(=O)(=O)N3CCCC3)cc21`, the survival is reported as inactive: 94%.
